# This is one part of the list. Most values come without repeats; read them as rough.
# Experiments:
# Assay in all cases: cell count relative to DMSO control; melanoma cells; higher = more viable cells
# Settings in all cases: library dose: low library concentration; 72 h
# WM115 = tested on: WM115
# WM1716 = tested on: WM1716
# WM1745 = tested on: WM1745
# WM3526 = tested on: WM3526
# WM3619 = tested on: WM3619
# WM451Lu = tested on: WM451Lu
# 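Also: cell number obtained by counting DAPI-stained nuclei in high-throughput microscope images with image analysis software, screen run in 1,536-well plates.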
Compound,cell count (WM115) [%],cell count (WM1716) [%],cell count (WM1745) [%],cell count (WM3526) [%],cell count (WM3619) [%],cell count (WM451Lu) [%]
"CS(=O)(=O)c1ccc(C(=O)Nc2ccc(Cl)c(-c3ccccn3)c2)c(Cl)c1 [vismodegib] + COc1ccc2c(c1)CCC1C2CCC2(C)C(NCCCCCCN3C(=O)C=CC3=O)CCC12 [U73122] (first compound 1 µM, partner dose 0.4 µM)",93.6,82.1,96.7,128,113,93.1
"CCCS(=O)(=O)Nc1ccc(F)c(C(=O)c2c[nH]c3ncc(Cl)cc23)c1F + CC1(C)NC(=O)N(c2ccc([N+](=O)[O-])c(C(F)(F)F)c2)C1=O [nilutamide] (first compound 0.08 µM, partner dose 1 µM)",107,105,96.2,77.9,112,99
"CCCS(=O)(=O)Nc1ccc(F)c(C(=O)c2c[nH]c3ncc(Cl)cc23)c1F + COc1ccc(Cl)c(Nc2nc3ccccc3nc2NS(=O)(=O)c2cccc(NC(=O)C(C)(C)N)c2)c1 [XL147] (first compound 0.08 µM, partner dose 0.8 µM)",87.5,109,90.8,63.8,71.4,97.1
"CCCS(=O)(=O)Nc1ccc(F)c(C(=O)c2c[nH]c3ncc(Cl)cc23)c1F + O=C(Nc1ccccc1)c1cc([N+](=O)[O-])ccc1Cl [GW9662] (first compound 0.08 µM, partner dose 2 µM)",96.3,103,86.5,78.5,101,97.6
"C=C(c1ccc(C(=O)O)cc1)c1cc2c(cc1C)C(C)(C)CCC2(C)C [Bexarotene] + Nc1nc(F)nc2c1ncn2[C@@H]1O[C@H](CO)[C@@H](O)[C@@H]1O [fludarabine] (first compound 2 µM, partner dose 0.2 µM)",96.9,90.5,86.3,39.2,101,62.6
"NC1(c2ccc(-c3nc4ccn5c(=O)[nH]nc5c4cc3-c3ccccc3)cc2)CCC1 + COc1cc2ncnc(Nc3ccc(Oc4ccccc4)cc3)c2cc1OC [SrcI1] (first compound 0.4 µM, partner dose 2 µM)",74.8,111,79.3,57.1,105,115
"C=C(c1ccc(C(=O)O)cc1)c1cc2c(cc1C)C(C)(C)CCC2(C)C [Bexarotene] + O=C(Nc1cccc(Cl)c1)Nc1ncc(CCNc2ncnc3ccsc23)s1 [SNS314] (first compound 2 µM, partner dose 0.0008 µM)",82.6,95.5,82,62.8,78.2,96.8
"CCCS(=O)(=O)Nc1ccc(F)c(C(=O)c2c[nH]c3ncc(Cl)cc23)c1F + CC(C)CCN1c2nc(Nc3cc(F)c(O)c(F)c3)ncc2N(C)C(=O)C1C [BID1870] (first compound 0.08 µM, partner dose 0.2 µM)",96.6,100,100,76,107,122
"CS(=O)(=O)c1ccc(C(=O)Nc2ccc(Cl)c(-c3ccccn3)c2)c(Cl)c1 [vismodegib] + O=C(O)C(=O)Nc1sc2c(c1C(=O)O)CCNC2 [TCS401] (first compound 1 µM, partner dose 1.66667 µM)",118,95.5,88.9,90,103,101
"CN(c1ncccc1CNc1nc(Nc2ccc3c(c2)CC(=O)N3)ncc1C(F)(F)F)S(C)(=O)=O + O=C(CCCCCCC(=O)Nc1ccccc1)NO [vorinostat] (first compound 0.08 µM, partner dose 0.08 µM)",89.7,101,108,106,98.9,64
"CS(=O)(=O)c1ccc(C(=O)Nc2ccc(Cl)c(-c3ccccn3)c2)c(Cl)c1 [vismodegib] + Cn1cncc1[C@@](N)(c1ccc(Cl)cc1)c1ccc2c(c1)c(-c1cccc(Cl)c1)cc(=O)n2C [tipifarnib] (first compound 1 µM, partner dose 0.01 µM)",96.6,94.9,91.5,86.2,87,86.9
"CN(c1ncccc1CNc1nc(Nc2ccc3c(c2)CC(=O)N3)ncc1C(F)(F)F)S(C)(=O)=O + C#Cc1cccc(Nc2ncnc3cc(OCCOC)c(OCCOC)cc23)c1 [erlotinib] (first compound 0.08 µM, partner dose 0.8 µM)",70.3,80.9,79.7,91.7,97.7,72.6
"CN(c1ncccc1CNc1nc(Nc2ccc3c(c2)CC(=O)N3)ncc1C(F)(F)F)S(C)(=O)=O + O=C1NC(=O)/C(=C/c2ccc(-c3ccc(F)cc3O)o2)S1 [AS252424] (first compound 0.08 µM, partner dose 1 µM)",77.8,92.1,64.3,89.7,82,87
"CCCS(=O)(=O)Nc1ccc(F)c(C(=O)c2c[nH]c3ncc(Cl)cc23)c1F + COc1cc(Nc2ncc(F)c(Nc3ccc4c(n3)NC(=O)C(C)(C)O4)n2)cc(OC)c1OC [Tamatinib] (first compound 0.08 µM, partner dose 0.4 µM)",77.3,97.2,69.2,60.3,99.7,91.2
"CN(c1ncccc1CNc1nc(Nc2ccc3c(c2)CC(=O)N3)ncc1C(F)(F)F)S(C)(=O)=O + N#Cc1c(O)c2c(-c3ccc(-c4ccccc4O)cc3)csc2[nH]c1=O [A769662] (first compound 0.08 µM, partner dose 2 µM)",84.9,108,81.3,94.3,90.9,90.3
"CCCS(=O)(=O)Nc1ccc(F)c(C(=O)c2c[nH]c3ncc(Cl)cc23)c1F + COc1ccc(COc2ccc(Cc3cnc(N)nc3N)cc2OC)cc1 [GW2580] (first compound 0.08 µM, partner dose 1 µM)",92.8,108,88.2,72.3,86.5,89.7
"CS(=O)(=O)c1ccc(C(=O)Nc2ccc(Cl)c(-c3ccccn3)c2)c(Cl)c1 [vismodegib] + CCCS(=O)(=O)Nc1ccc(F)c(C(=O)c2c[nH]c3ncc(Cl)cc23)c1F [PLX4720] (first compound 1 µM, partner dose 0.08 µM)",119,125,95.8,81.3,98.8,109
"CN(c1ncccc1CNc1nc(Nc2ccc3c(c2)CC(=O)N3)ncc1C(F)(F)F)S(C)(=O)=O + Clc1ccc(Nc2nnc(Cc3ccncc3)c3ccccc23)cc1 [vatalanib] (first compound 0.08 µM, partner dose 2 µM)",83,93.9,90.9,94.1,79.8,90.5
"C=C(c1ccc(C(=O)O)cc1)c1cc2c(cc1C)C(C)(C)CCC2(C)C [Bexarotene] + CCCCCCCCCCCC1=C(O)C(=O)C=C(O)C1=O [Embelin] (first compound 2 µM, partner dose 1.2 µM)",98.1,95.1,90.7,83.3,108,90.5
"CCCS(=O)(=O)Nc1ccc(F)c(C(=O)c2c[nH]c3ncc(Cl)cc23)c1F + C#Cc1cccc(Nc2ncnc3cc(OCCOC)c(OCCOC)cc23)c1 [erlotinib] (first compound 0.08 µM, partner dose 0.8 µM)",105,103,87,63.7,87.9,101
"CCCS(=O)(=O)Nc1ccc(F)c(C(=O)c2c[nH]c3ncc(Cl)cc23)c1F + CO[C@@H]1[C@H](N(C)C(=O)c2ccccc2)C[C@H]2O[C@]1(C)n1c3ccccc3c3c4c(c5c6ccccc6n2c5c31)C(=O)NC4 [Midostaurin] (first compound 0.08 µM, partner dose 0.08 µM)",103,102,90.4,61.4,68.3,111
"CN(c1ncccc1CNc1nc(Nc2ccc3c(c2)CC(=O)N3)ncc1C(F)(F)F)S(C)(=O)=O + C=CCn1c(=O)c2cnc(Nc3ccc(N4CCN(C)CC4)cc3)nc2n1-c1cccc(C(C)(C)O)n1 [MK1775] (first compound 0.08 µM, partner dose 0.02 µM)",81.8,83.4,68,94.1,74.6,86.3
"CCCS(=O)(=O)Nc1ccc(F)c(C(=O)c2c[nH]c3ncc(Cl)cc23)c1F + c1cc(-c2cnn3cc(-c4ccc(OCCN5CCCCC5)cc4)cnc23)ccn1 [Dorsomorphin] (first compound 0.08 µM, partner dose 0.4 µM)",98.4,112,106,62.4,76.5,99.5
"CS(=O)(=O)c1ccc(C(=O)Nc2ccc(Cl)c(-c3ccccn3)c2)c(Cl)c1 [vismodegib] + COc1ccc(-c2ccc3c(N4CCOCC4)nc(N4C[C@@H](C)O[C@@H](C)C4)nc3n2)cc1CO [KU0063794] (first compound 1 µM, partner dose 0.02 µM)",97.8,96.3,107,108,65.7,109
"CN(c1ncccc1CNc1nc(Nc2ccc3c(c2)CC(=O)N3)ncc1C(F)(F)F)S(C)(=O)=O + C[C@]1(c2nc3c(C(N)=O)cccc3[nH]2)CCCN1 [Veliparib] (first compound 0.08 µM, partner dose 1.4 µM)",80.5,60.9,83.4,95.8,102,74.1
"C=C(c1ccc(C(=O)O)cc1)c1cc2c(cc1C)C(C)(C)CCC2(C)C [Bexarotene] + COc1cc2ncnc(Nc3ccc(Oc4ccccc4)cc3)c2cc1OC [SrcI1] (first compound 2 µM, partner dose 2 µM)",109,86,76.4,95.1,87.5,98.1
